Reference: PubChem BioAssay (NCI)
“And” between values parts separate entries of the source, which are not always exact repeats. Equal values may be shown once.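 Each compound was tested at five concentrations against cells in 96-well plates for 48 hours. GI50 marks 50% less growth. TGI: concentration producing complete growth inhibition.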

System: NCI-H322M lung
Test: DTP human tumour cell line panel, 48 h

SMILES | GI50 | TGI
N#C/C(=N\Nc1ccccc1)C(=O)Nc1cc(-c2ccccc2)nn1-c1ccccc1 | 2.92 µM | 22.4 µM
Cn1nc(C(F)(F)F)c(-c2cc(C(F)(F)F)cc(C(F)(F)F)c2)c1-c1ccc(OCc2ccc(Cl)cc2)cc1O | 2.6 µM | 10.6 µM
COC(=O)c1c(C)cccc1C1CN=NC12Cc1cc(C)cc(C)c1C2=O (centres undefined) | – | > 100 µM
COc1cc(NS(C)(=O)=O)ccc1NCc1c2ccccc2nc2ccccc12 | – | > 100 µM
COc1cc2c(cc1Oc1c(Oc3c(O)c(OC)cc4c3C(CC(C)C)N(C)CC4)c(OC)cc3c1C(CC(C)C)N(C)CC3)C(CC(C)C)N(C)CC2 (centres undefined) | – | 11.1 µM
O=C1CNC(=O)c2[nH]cnc2N1 | – | > 100 µM
Cc1cc2c(c(S(=O)(=O)c3ccccc3[N+](=O)[O-])c1)NCCC2 | – | > 100 µM
CCCCCCCCCCCCCCCCCCNC(=S)/N=C/c1c(O)c2ccccc2[nH]c1=O | – | 36.2 µM
CC(C)=CC(=O)N[C@H]1CC[C@]2(C)C3CC[C@]4(C)C(C(C)N(C)C)=CCC4C3CCC2[C@H]1O (some centres undefined) | 3.62 µM | 14.3 µM
CCn1c2c(c3ccccc31)[C@@H](c1ccc(Cl)cc1)CC1C(=O)N(c3ccccc3)C(=O)C21 (some centres undefined) | – | > 100 µM
Cc1ccc(NC(=O)/C(Cc2cc(=O)oc3cc(O)ccc23)=N\NC(C)(C)C)cc1C | – | > 100 µM
ClCc1ccccc1Cn1cnc2c(Cl)ncnc21 | 3.94 µM | 13.9 µM
CCOC(=O)CCN1C(=O)C(=O)N(c2ccc(OC)cc2)C1=S | – | > 100 µM
Clc1ccc2nc(CI)c(CI)nc2c1 | > 45.6 µM | > 77.3 µM
Cc1nc2c(cc1OCc1ccccc1)C(=O)C1=C(C2=O)C2OC(=O)CC2OC1(C)C (centres undefined) | – | 5.1 µM
Nc1nc(SCc2ccccc2Cl)cc(C(=O)O)n1 | – | > 100 µM
O=c1c2cnccc2cc2c3ccccc3ccn12 | – | > 100 µM
Cc1nc(N)nc(N)c1CCCc1ccccc1 | – | > 100 µM
COC(=O)C(CC(=O)Nc1ccc(Cl)c(Cl)c1)C(=O)C(=O)Nc1ccc(Cl)c(Cl)c1 (centres undefined) | – | > 100 µM
Cc1ccc(S(=O)(=O)OC(COC(=O)c2ccccc2)C(OS(=O)(=O)c2ccc(C)cc2)C(OS(=O)(=O)c2ccc(C)cc2)C(COC(=O)c2ccccc2)OS(=O)(=O)c2ccc(C)cc2)cc1 (centres undefined) | – | > 100 µM
CC1SC2(CCCCC2)N(NC(=O)CSc2nc3ccc(Cl)cc3c(=O)n2-c2ccccc2)C1=O (centres undefined) | – | > 100 µM
Cc1c(C)c(C)c(-n2c(=O)n(C)c(=O)n2-c2cc(C(C)(C)C)cc(C(C)(C)C)c2O)c(C)c1C | – | 27.5 µM
Cc1cc(OCCOCCC(F)(F)P(=O)(O)O)ccc1CCc1cnc2c(N)nc3cc(CCC(=O)O)ccc3c2c1 | > 100 µM | > 100 µM

SMILES | GI50 | TGI
O=C1CC(=O)NC(=NN2C(=O)CSC2C(=O)c2ccco2)N1 (centres undefined) | – | > 100 µM
C[n+]1c2ccccc2nc2ccccc21 | 7.27 µM | 21.5 µM
COC(=O)C1=C(C(=O)OC)C(N(C)C)C(C(=O)OC)=C(C(=O)OC)S1 | – | > 100 µM
CCCCCCCC/C=C1\CCC(CN2CCOCC2)C1=O (centres undefined) | – | 30.3 µM
CC1=NOC(=O)/C1=C/c1ccc([N+](=O)[O-])cc1 | – | > 100 µM
CC(C)(C)NC(=O)/C(=C\Sc1ccccc1)c1ccccc1 | – | > 100 µM
COC(=O)CNC(=O)CCC(C)[C@H]1CCC2C3C(C[C@H](OC(C)=O)[C@@]21C)[C@@]1(C)CCC2(C[C@H]1C[C@H]3OC(C)=O)OOC1(CC[C@]3(C)C4C[C@H](OC(C)=O)[C@@]5(C)C(CC[C@@H]5C(C)CCC(=O)NCC(=O)OC)C4[C@H](OC(C)=O)C[C@@H]3C1)OO2 (some centres undefined) | – | > 50 µM
CC(C)c1cccc(O)c(=O)c1 | 38.4 µg/mL | > 75 µg/mL and > 100 µM
CN(C)CCNC(=O)c1cccc2nc3c(C(=O)NCCN(C)C)cccc3nc12 | – | 4.14 µM
C=CCC1(C(=O)OC(C)(C)C)C(OC)=C(C(=O)OC(C)(C)C)C2C1C(C(=O)OC(C)(C)C)=C(OC)C2(CC=C)C(=O)OC(C)(C)C (centres undefined) | – | > 100 µM
c1ccc(Nc2nn3c(CCCCCCCCc4nnc5sc(Nc6ccccc6)nn45)nnc3s2)cc1 | – | > 100 µM
COc1ccc2oc(-c3ccc(OC)c(OC)c3OC)cc(=O)c2c1 | – | > 100 µM
O=C(O)c1c2c(cc3c1CC1(Cc4cc5c(cc4C1=O)CCC5)C3)CCC2 (centres undefined) | – | > 100 µM
O=[N+]([O-])/C=C(\CS(=O)(=O)c1ccccc1)c1ccc2c(c1)OCO2 | – | > 100 µM
COC(=O)C(=O)C(C(=O)C(=O)Nc1ccccc1OC)c1nc2ccc([N+](=O)[O-])cc2[nH]c1=O (centres undefined) | – | > 100 µM
O=S(=O)(N=NC=C1c2ccccc2N(O)c2ccccc21)c1ccc(Cl)cc1 | – | > 100 µM
O=[N+]([O-])c1cc(F)ccc1S(=O)(=O)c1ccccc1 | – | > 10 µM
CCCCSC1=N/C(=C\c2ccc(N(C)C)cc2)C(=O)N1 | – | > 100 µM
CN(O)C(=O)CCCC(=O)NCC(C)(C)CNC(=O)CCCC(=O)N(C)O | – | > 100 µM
C=CC(C)C1(CCCOCc2ccccc2)C(=S)N2CCC3(CC24CCCC14)OCCO3 (centres undefined) | – | > 100 µM
CCCCCCCCCCCCCC[n+]1ccc(C(N)=O)cc1 | 5.79 µM | 21.8 µM
COC1CCC(OC)C(C2(C3CC(OC)CCC3OC)OC(=O)c3ccccc32)C1 (centres undefined) | – | > 100 µM
